This is one part of the list. Values were computed here from the reads of four pooled replicates and scatter widely.
What follows are sequences tested against T1, Pho4 (S. cerevisiae) (UniProt P07270) (assay: relative binding free energy (BET-seq); higher = weaker binding). Details: reference: library average.
T1 sequence: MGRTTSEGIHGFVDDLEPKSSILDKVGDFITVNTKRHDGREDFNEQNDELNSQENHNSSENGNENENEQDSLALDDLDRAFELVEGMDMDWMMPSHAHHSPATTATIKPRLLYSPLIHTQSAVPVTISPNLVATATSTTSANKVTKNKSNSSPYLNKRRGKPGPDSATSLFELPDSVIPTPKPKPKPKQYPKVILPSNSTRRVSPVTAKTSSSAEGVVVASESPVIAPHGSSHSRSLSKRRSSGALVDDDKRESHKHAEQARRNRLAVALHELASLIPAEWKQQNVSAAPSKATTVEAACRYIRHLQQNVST

| Sequence | relative binding free energy [kcal/mol] |
| --- | --- |
| TGTATCACGTGTGTGC | 0.27 |
| ATTAACACGTGCAGTT | 0.03 |
| AGATTCACGTGGTAGA | 0.16 |
| GATAGCACGTGTAATG | 0 |
| GTTTTCACGTGTTCGA | 0.48 |
| ATGAACACGTGGTAAG | 0.01 |
| GCGGTCACGTGAGTAT | 0.37 |
| GAGTTCACGTGTGCTT | 0.19 |
| GTGATCACGTGGAATG | 0.29 |
| TGGGTCACGTGTCAGA | 0.11 |
| GGGGCCACGTGTAGGT | 0.07 |
| GAGGTCACGTGGTTGA | 0.18 |
| GACGGCACGTGGGTTA | -0.07 |
| TGGCGCACGTGGTAGA | -0.14 |
| GTTGACACGTGTCTGT | -0.03 |
| TCGGTCACGTGGTGCG | 0.13 |
| TGTAACACGTGTCTTG | -0.09 |
| GTTTACACGTGTGGAA | 0.22 |
| GAGTGCACGTGGGGCG | -0.12 |
| AGTCGCACGTGGGATT | -0.12 |
| ATGCTCACGTGTGGCG | 0.11 |
| CGTGGCACGTGTGGAT | -0.03 |
| GTGGCCACGTGTCAGG | -0.04 |

| Sequence | relative binding free energy [kcal/mol] |
| --- | --- |
| AAGTACACGTGTTTAT | 0.09 |
| GGAAACACGTGGTTAT | 0.03 |
| CATTGCACGTGTTTGT | -0.02 |
| CTTTTCACGTGGATAT | 0.16 |
| GAGAACACGTGTGGTA | 0.07 |
| TAGTTCACGTGGAAGG | 0.32 |
| TTGTCCACGTGGGCGT | -0.25 |
| GTTGGCACGTGACAAG | -0.02 |
| TAAAACACGTGTGGTG | 0.03 |
| GGGAGCACGTGGTGTG | -0.25 |
| TGTTACACGTGTTTAG | 0.17 |
| CTCTTCACGTGGTTGT | 0.23 |
| AGGCCCACGTGGTGGT | -0.27 |
| TTAATCACGTGGTGAC | 0.17 |
| ATTGTCACGTGTTTAT | 0.09 |
| AAGTGCACGTGGTATC | 0.08 |
| AGAATCACGTGTTTTG | 0.08 |
| AGCTACACGTGTGTTT | 0.13 |
| TTCAACACGTGTGTCG | 0.18 |
| TGTTCCACGTGTGTGT | 0.09 |
| CGAAGCACGTGTTGAG | -0.02 |
| CTTGTCACGTGTTTGT | 0.05 |
| CGTGGCACGTGGGTCT | -0.2 |

| Sequence | relative binding free energy [kcal/mol] |
| --- | --- |
| GCTGGCACGTGAGTGT | 0.09 |
| GAGCTCACGTGCGGGT | 0.2 |
| GGGACCACGTGGGATG | -0.09 |
| TTTTTCACGTGGATTT | 0.26 |
| AAGCGCACGTGGTTGA | -0.07 |
| CGAGTCACGTGTGTAA | 0.04 |
| TCGGTCACGTGGAGCG | 0.14 |
| GTATCCACGTGGTTGG | 0.17 |
| TAGATCACGTGAAATG | 0.48 |
| TTTTCCACGTGATATT | 0.2 |
| TCGGGCACGTGTCCTG | 0.08 |
| TCTTGCACGTGTAGTG | 0.13 |
| CATGTCACGTGACGGT | 0.13 |
| TAGGGCACGTGTAGCT | -0.19 |
| AGGATCACGTGGTAAT | 0.09 |
| TCGTTCACGTGTGGGG | 0.33 |
| TAGGGCACGTGTAGGA | -0.1 |
| TCGGGCACGTGAATGT | 0.17 |
| TTTCGCACGTGATTGG | 0.25 |
| GTGTCCACGTGTAGTA | 0.33 |
| TAAGGCACGTGAGCTT | 0.09 |
| TGGGACACGTGAAGGG | 0.27 |
| ATCAACACGTGTTTGG | -0.02 |

| Sequence | relative binding free energy [kcal/mol] |
| --- | --- |
| TCGTTCACGTGTGCTT | 0.28 |
| CTTGTCACGTGGATAT | 0.18 |
| TGTTTCACGTGACAGT | 0.19 |
| TGGTTCACGTGGGGAG | 0.23 |
| AGGGTCACGTGATTCG | 0.3 |
| ATTAACACGTGTTGTT | -0.04 |
| TTTTGCACGTGATAAG | 0.09 |
| CGGGCCACGTGAGATT | 0.46 |
| GTTCGCACGTGATATG | 0.11 |
| CGTGGCACGTGGAGAA | 0.05 |
| ATTAGCACGTGGGTCC | -0.07 |
| ATAATCACGTGTCGGG | 0.14 |
| TTAAGCACGTGTATGC | 0.05 |
| GTTATCACGTGGAGTG | 0.3 |
| TTTGGCACGTGTCATT | -0.12 |
| ATATTCACGTGTCTAG | 0.29 |
| AATAGCACGTGGGTCT | -0.11 |
| CGATGCACGTGTTGTA | -0.05 |
| AGTAGCACGTGCTATT | -0.09 |
| CATATCACGTGGTTGC | 0.17 |
| AACTGCACGTGGAGGT | 0.02 |
| AGGATCACGTGATGTA | 0.16 |
| TTAGGCACGTGACGTG | -0.01 |

| Sequence | relative binding free energy [kcal/mol] |
| --- | --- |
| GGTCGCACGTGTTTCG | 0 |
| CGGCGCACGTGAGGGT | 0.13 |
| AGTGACACGTGTAGAT | 0.11 |
| TATATCACGTGGGGAT | 0.07 |
| CGTTTCACGTGTAGTG | 0.22 |
| TGTGTCACGTGCTCTT | -0.02 |
| AGTGGCACGTGTCTGA | -0.12 |
| AGGGCCACGTGGGATG | -0.14 |
| TGGTTCACGTGGGCCT | 0.17 |
| TAGGGCACGTGAGTAA | 0.01 |
| GCATTCACGTGTTGGT | 0.36 |
| AGTGGCACGTGCTATA | -0.16 |
| GGGAGCACGTGGGTAT | -0.18 |
| TTTAGCACGTGCGTGT | -0.17 |
| TGTAGCACGTGTGCGT | -0.04 |
| TAAGACACGTGGGTTT | -0.03 |
| TGGCGCACGTGATTTG | 0.03 |
| ATGCGCACGTGAGGTG | 0.05 |
| ATCCTCACGTGTTGGT | 0.19 |
| TGGTACACGTGGCTTA | -0.02 |
| TTGTGCACGTGTTATC | -0.03 |
| CGTTGCACGTGCGGTA | -0.11 |
| TAGGCCACGTGCGTGG | -0.22 |
